Data set [1] relates to FMR1. Put plainly: RT-PCR analysis of FMR1 transcript levels in FXS-iPSCs. The data set is classed as cell-based, human. The settings on record: for FMR1 mRNA expression (RT-PCR): FXS-iPSCs B #40, 96-hour treatment, 5-azaC 5 μM, 5-azadC 5 μM, SGI-110 2 μM, Zebularine 100 μM, non-nucleoside inhibitors 5-100 μM. An excerpt: Three human iPSC clones derived from three individual FXS patients were used during the study: patient A—clone 52, patient B—clone 40 and patient C—clone 2 (Urbach, A., Bar-Nur, O., Daley, G. Q., and Benvenisty, N. (2010). Differential Modeling of Fragile X Syndrome by Human Embryonic Stem Cells and Induced Pluripotent Stem Cells. Cell Stem Cell 6, 407-411). As a control, we used a previously characterized isogenic FXS-iPSC line with a deletion of the CGG repeat tract, induced using the CRISPR/Cas9 technology, and CSES9 hESCs and their derivatives were used as a reference for FMR1 normal expression levels (WT expression). Cell culture conditions were standard for PSC culturing. Briefly, cells were cultured on mouse embryonic fibroblasts (MEFs) in KnockOut Dulbecco's modified Eagle's medium (Invitrogen) supplemented with 15% KnockOut SR (Invitrogen), 0.1 mM β-mercaptoethanol (Sigma-Aldrich), 1% nonessential amino acids stock (Biological Industries), 1 mM glutamine, 0.1 mM 3-mercaptoethanol (Sigma-Aldrich), 50 U/ml penicillin (Biological Industries), 50 μg/ml streptomycin (Biological Industries) and 4 ng/ml FGF2 (Invitrogen). The medium was supplemented with 10 μM ROCK inhibitor (Y27632) during the first 24 hours after thawing. The cells were passaged using trypsin or trypsin-EDTA (Biological Industries, Beit Haemek, Israel).
(§1) GAPDH was used for normalization.
Since aberrant DNA hypermethylation plays a major role in silencing FMR1 transcription, we sought to analyze the reactivating effect of a series of hypomethylating agents, inhibiting the activity of DNMTs. DNMT inhibitors are divided into nucleoside-like inhibitors and non-nucleoside inhibitors of various origins and structures. We have analyzed the effects of 4 nucleoside DNMT inhibitors (5-azacytidine, 5-aza-2-deoxycytidine, SGI-110 and Zebularine) and 5 non-nucleoside DNMT inhibitors (SGI-1027, Procainamide, Hydralazine, RG108, Disulfiram) on FMR1 expression (FIG. 1A) in FXS-iPSCs.
We tested a set of 140 compounds in two concentrations (2 μM and 20 μM), with a treatment course of 72 hours (FIG. 1F). Using our automated imaging assay, we identified 19 compounds that induced a small FMRP signal increase. […] The positive hit compounds, along with 26 more compounds that were too toxic in the concentrations used in the 96-well assay, were tested in a secondary assay using quantitative RT-PCR to measure FMR1 expression. […] As no hit compound was potent enough to replace 5-azadC as a single treatment, we hypothesized that combining a nucleoside DNMT inhibitor with a compound that acts through a different mechanism may potentiate the effect of the demethylating treatment and decrease the levels of 5-azadC required for a robust induction of FMR1 expression. […]

The subject of data set [2] is FMR1. The settings on record: Bar-Nur et al., 2012; cited from earlier work.
Data set [3] has as its system FMRP. Put plainly: FMRP expression screening (immunostaining imaging assay, 96-well) in FXS-iPSCs. As to conditions: for FMRP signal in epigenetic library screen: 2 μM and 20 μM, 72 hours, FXS-iPSCs A #52. The data set is classed as cell-based, human.
Data set [4] relates to FMR1. Put plainly: RT-PCR of FMR1 expression in FXS transplant-derived cell culture. The class given is cell-based, human. As to conditions: DZNep 25 uM versus DMSO, 4 days. On the procedure:
as §1
FXS-transplants were dissociated into small cell aggregates. Following further trypsinization, dissociated cells were plated on gelatin coated 6-well plates.

For data set [5], the system named is FMR1. Put plainly: RT-PCR of FMR1 expression in terminally differentiated FXS-neurons. The data set is classed as cell-based, human. The settings on record: 48 hours of treatment.
Excerpt: as §1

In the next data set the test system is iPSCs. Put plainly: Toxicity of treatment in iPSCs.
The next data set concerns FXS-NPCs. The data set is described as follows: Viability of FXS-NPCs following treatment.
Data set [6] relates to FMRP. The data set is described as follows: Western blot analysis of FMRP expression in FXS-NPCs. The data set is classed as cell-based, human. The settings on record: 14 and 35 days after treatment withdrawal. The procedure: Cell protein lysates were prepared using sample buffer composed of 100 mM Tris pH 6.8, 200 mM DTT, 4% SDS, 0.2% bromophenol blue and 20% glycerol. 10% polyacrylamide gel was used for protein separation. Gel was transferred to a nitrocellulose membrane. Following blocking with 5% nonfat dry milk in PBS for 1 hour, the membranes were incubated with mouse anti-FMRP antibody (YF-MA10356, Abfrontier) and rabbit anti GAPDH antibodies (2118, Cell Signaling). Following three washes the membranes were incubated with horseradish peroxidase-conjugated anti-rabbit and anti-mouse secondary antibodies (Jackson ImmunoResearch Laboratories).

For a further data set, the system named is FMR1 promoter. The settings on record: 5 intraperitoneal injections of 15 mg/kg/day.
The test system of data set [7] is FMR1.
In data set [8] the test system is FMR1. The source holds these as a separate data set.
Data set [9] has as its system FMR1. Put plainly: FMR1 reactivation in human FXS-NPC grafts transplanted in mouse brain. The class given is in vivo, C57BL/6 female mice. As to conditions: i.p. 15 mg/kg/day for 5 days. On the procedure: FXS-iPSCs and edited FXS-iPSCs were differentiated into NPCs using dual SMAD inhibition, based on previously published protocols with modifications: Briefly, iPSC lines were seeded on Matrigel-coated plates (1×10^6 cells/well) in mTeSR medium with 10 μM ROCK inhibitor (Y27632). Differentiation was initiated by supplementing human embryonic stem cell media lacking FGF2 with 10 μM SB431542 (biogems) and 2.5 μM LDN-193189 (biogems) for 4 days. In the subsequent 5 days, medium was gradually replaced with N2 medium (DMEM/F12 supplemented with 1×N2 supplement, 50 U/ml penicillin (Biological Industries), 50 μg/ml streptomycin (Biological Industries), 1 mM glutamine, 0.2 mM ascorbic acid and 0.16% glucose) supplemented with 10 μM SB431542 and 2.5 μM LDN-193189. […]
For RNA extraction, treated and untreated brains were excised and the grafts inside the target structures were dissected. Quantitative RT-PCR analysis of human-specific primers for the GAPDH gene mRNA confirmed the existence of human GAPDH mRNA only in grafted regions, but not in normal murine brain structures (FIG. 4F).

Consider `Nc1ncn([C@@H]2O[C@H](CO)[C@@H](O)[C@H]2O)c(=O)n1` [5-azacytidine], for which, in the data set on FMR1 [1], the “FMR1 mRNA expression (RT-PCR)” value is on record as “robustly induce FMR1 mRNA expression”. Moreover, the “Restoration of FMR1 expression in FXS-iPSCs and their neural derivatives” value with FMR1 [2] is given as “able to restore FMR1 expression”.

On to `CCCc1cc(C)[nH]c(=O)c1CNC(=O)c1cc(-c2ccc(N3CCN(C(C)C)CC3)nc2)cc2c1cnn2C(C)C` [UNC1999], for which, in the data set with FMRP [3], the “FMRP signal in epigenetic library screen” value was “no positive effect on FMRP reactivation”.

In the case of `Nc1nccc2c1ncn2C1C=C(CO)C(O)C1O` (stereo not drawn) [DZNep, 3-Deazaneoplanocin A], the “FMR1 expression in secondary assay (quantitative RT-PCR), single agent” value in the data set with FMR1 [1] (FXS-iPSCs A #52, 96-hour treatment, DZNep 20 uM) is given as “the most potent”. For the same compound, the “FMR1 mRNA in cells of 5-azadC treated FXS transplants after subsequent in vitro treatment” value with FMR1 [4] is “higher levels of FMR1 mRNA”.

With `Nc1ncn([C@H]2C[C@H](OP(=O)(O)OC[C@H]3O[C@@H](n4cnc5c(=O)[nH]c(N)nc54)C[C@@H]3O)[C@@H](CO)O2)c(=O)n1` [SGI-110, Guadecitabine], the “FMR1 mRNA expression (RT-PCR)” value with FMR1 [1] is on record as “robustly induce FMR1 mRNA expression”.

As for `Nc1ncn([C@H]2C[C@H](O)[C@@H](CO)O2)c(=O)n1` [5-azadC, 5-aza-2-deoxycytidine], the “FMR1 expression in terminally differentiated neuronal cultures” value in the data set with FMR1 [5] is on record as “modest levels of FMR1 expression”. For the same compound, the “FMR1 mRNA expression (RT-PCR)” value in the data set with FMR1 [1] is “robustly induce FMR1 mRNA expression”. In the data set on iPSCs, the “Toxicity in iPSCs” value is recorded as “significant toxicity”. In addition, the “Changes in viability of FXS-NPCs” value with FXS-NPCs is listed as “did not show any changes in viability”. The “FMRP expression (western blot) after treatment withdrawal” value in the data set with FMRP [6] is on record as “detectable in similar levels”. Moreover, in the data set with FMR1 promoter, the “Demethylation of the FMR1 promoter in FXS-transplants” value is “efficiently demethylate the FMR1 promoter”. Also, the “Dose dependence of FMR1 reactivation” value in the data set on FMR1 [7] (FXS-NPCs, 96-hour treatment, different concentrations) is recorded as “dose dependent manner”. Besides, the “FMR1 mRNA maximum, percent of normal cells” value in the data set on FMR1 [7] (FXS-NPCs, 6 days after the drug was removed) is given as 60-70%. In addition, in the data set with FMR1 [7] (FXS-NPCs, following 6 days of treatment (5 μM)), the “FMR1 mRNA, percent of normal cells” value was 40%. In addition, the “Maintenance of FMR1 expression after treatment withdrawal” value in the data set on FMR1 [7] (FXS-NPCs, up to 30 days after the end of the treatment) is on record as “did not show any decline in FMR1 expression”. The “FMR1 mRNA levels relative to isogenic edited-FXS cell line” value in the data set with FMR1 [7] (FXS-iPSC-derived NPCs, 5-azadC treatment) was “approximately 40%”. Moreover, in the data set with FMRP [3] (1 μM, different incubation times), the “FMRP expression (fraction of FMRP positive cells) by automated imaging” value is listed as “time dependent increase in FMRP expression”. In addition, the “FMRP signal in epigenetic library screen” value with FMRP [3] is reported as “identified among the positive hits”. In addition, in the data set with FMR1 [8] (15 mg/kg/day, 5 injections), the “Course of FMR1 mRNA expression after treatment withdrawal in FXS-transplants” value is “continued to increase during the first 6 days”. Besides, the “Effective dose in mice” value in the data set on FMR1 [8] (5-azadC alone) fell in the range of 5 to 15 mg/kg/day. Moreover, the “FMR1 expression in FXS-transplants, RNA and protein levels” value in the data set with FMR1 [8] (5 intraperitoneal injections of 15 mg/kg/day) was “robustly induce FMR1 expression”. Also, the “Time FMR1 mRNA expression remained stable after the end of treatment” value in the data set on FMR1 [8] (FXS-transplants, without re-silencing) is recorded as “at least 30 days”. The “Human FMRP in FXS-NPC grafts (immunofluorescence)” value in the data set with FMR1 [9] is on record as “FMRP reactivation”.

The record behind these values is patent US12226427B2, “Treatment for gene reactivation” (YISSUM RESEARCH DEVELOPMENT COMPANY OF THE HEBREW …, priority 2018, dated 2025).
